Whole data set: some 33,000 sequences, median “E-score (-0.5 to 0.5)” near -0.054, cut for the highest 2% near 0.39. This is one part of the list.
These sequences were tested against Ylr278c (UniProt Q05854) (assay: PBM E-score (8-mer binding enrichment) (E-score (-0.5 to 0.5)); higher = stronger / more preferred TF binding; most listed sequences are background and not binding sites). Details: protein concentration: 200 nM; construct: GST-DNA-binding domain.
Protocol: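 Universal 'all 10-mer' protein binding microarrays (Agilent AMADID 015681) probed with GST-tagged S. cerevisiae TFs (full-length or DBD) made by in vitro transcription/translation (PURExpress), about 100-200 nM. Bound TF was detected with fluorescent anti-GST. Each ungapped 8-mer (which stands for itself and its reverse complement) is scored by the PBM enrichment score (E-score), a modified Wilcoxon-Mann-Whitney statistic from -0.5 to +0.5, computed with the Universal PBM Analysis Suite. Scale: above 0.35 generally sequence-specific binding.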

Sequence	PBM E-score
AGATATAA	-0.0869
CTTTTTCA	-0.113
CTAAAGAC	-0.12
ACTGATTG	-0.265
AACCTATT	0.0111
AGGGAACG	-0.106
CCCTAAGA	-0.221
ATCCACCC	-0.0998
TCAGTGAA	-0.101
ACCTGGCG	-0.0748
CCATGATC	-0.214
GGCCTAAC	0.0676
CAACTGCC	-0.00091
GCTAGGGA	-0.164
CAAAGTCA	-0.0965
AGATGCAC	-0.0601
CTATTCGA	-0.346
CTTGCCGC	0.0907
GAAGCTTC	0.0167
GAATTCAA	0.084
GGCATCCA	-0.0829
CCGAGGTA	0.186
GGTTAGCA	-0.0985
AAAAATGC	0.115
AAGCATTG	-0.221

Sequence	PBM E-score
GAACGGAC	0.279
AGGAGATC	0.0493
AGCCTTAA	0.0015
AAGGGTAC	-0.222
AACAAGTG	-0.215
GTGGAGCA	-0.158
AATCTTCA	-0.00179
CGACCCAC	0.0789
AGGAAGCC	-0.0235
GCTCCGAA	0.464
AGTATTCC	0.165
CAGCACTA	-0.205
AAGTATTG	-0.118
CCCAGTTC	0.138
GGAGCCGA	0.201
TGTCCACA	-0.105
TATTTGCA	-0.24
ACACTGAT	-0.339
GTGTTTGA	-0.191
CGATCGAA	0.153
ATGGCGCA	-0.0472
AATCCGCG	0.323
ACTATTTA	0.022
CCAGTACC	-0.00838
GAGTAGTA	-0.0609

Sequence	PBM E-score
CCTACCCG	0.00947
CACATAGC	0.0361
AGCCGGGG	0.26
AGCTATGC	-0.387
CAATGGCA	0.0325
CTACTTAC	-0.199
CATCTGAC	-0.0942
AATTCTGT	-0.0602
GCCGAACC	0.233
AACAATTA	0.139
GGTGGGAC	-0.0365
AACTATCC	0.0243
ATTACACC	0.0531
CTACGCAC	-0.126
CGTTACAC	-0.00317
GCGTTTCA	-0.0678
GGTGTCCA	0.00459
ACTGAAAG	0.0236
CCCTTGGA	-0.101
CCAGCGTA	-0.0965
AGTCGCCG	0.207
AAGTTGTC	0.0226
CAGCTCGA	-0.0471
GAAATCAC	0.189
AAAATTCT	0.0373

Sequence	PBM E-score
CTGTTCCC	-0.0628
CGGGGATC	0.408
AGTACACG	0.0148
AGAAACGG	0.14
GCTGATTA	-0.0428
GACGCGTA	-0.179
GGTAACAA	0.117
CATACTAC	-0.0878
TACCTGCA	-0.0718
CACTCGGA	0.329
ACCCCGCT	0.282
CCAGTTGA	-0.14
GAGAAAGC	0.0149
GATAGATC	-0.0349
ACTCCTGA	0.0258
AACCACGT	-0.315
AATCATAA	-0.2
ATGTGGTC	-0.222
TAAGTGCA	-0.0655
CCGCTACC	0.162
AGACACTA	0.066
ACCCAAAT	-0.0354
GATAGGGA	-0.132
GGATGCTA	-0.0596
ATGTCCCA	-0.0785

Sequence	PBM E-score
ATTCCAAG	-0.077
ATGCTCAC	-0.0485
CCTTCGCC	0.0639
ATTCGCGG	0.278
ACATCTCC	0.322
AAGTCTAA	-0.133
CAATTTAG	-0.127
CGGGTCGC	0.118
TAGGTAAA	-0.0912
TGTAGAAA	-0.108
TCTCATAA	-0.14
AACCACTT	-0.0892
AGCTTCCC	-0.166
TGCTACAA	-0.0276
AACCTGGA	-0.0326
CCCCTCAG	-0.124
CATACAAC	-0.148
CCGGATTC	0.405
CTCCTACA	-0.0245
CTTAATGC	-0.0845
AAACAATT	0.0357
AAACGGTG	-0.15
TACGCCCA	-0.0405
CGGTATAG	0.166
CATCCTTC	-0.0925

Sequence	PBM E-score
AACAATAT	0.138
AGGGGAGC	-0.117
CACCGGAG	0.443
ACAAACCC	0.0756
GGACGGCC	0.14
CTAATTAA	-0.234
GAACTTCA	-0.151
GGTGTCAA	-0.0561
AGTGCCGA	0.231
GAGATAGC	0.0195
CAGAGTTC	-0.0857
CCCGCTAG	0.183
GCTAAAAC	0.056
CGCCTCAC	0.122
CTAGCCTA	-0.0988
CCTGACGA	-0.245
CGCCCTTC	0.0938
AGGACGGG	0.00745
TAGCGTAA	-0.0517
CTCTGCGC	-0.0258
AGTATTGC	-0.103
GGTACAAC	-0.0892
GAATTTCA	0.0189
CTCATTGC	-0.0622
CCAGGCAC	-0.0214

Sequence	PBM E-score
CCCTCTCG	-0.157
CAACCAAC	-0.219
TTCGGAAA	0.419
ATTAGATA	-0.169
AGCCTCCA	-0.172
TGAGGGCA	-0.149
GGGTCAAC	0.0699
ACATCTAC	-0.0382
GGGTTCGA	-0.0929
GCAGTTAA	-0.067
TCCTACCA	-0.0857
ATTCCTTG	-0.136
GAAGGAAA	-0.227
AATATCCC	0.211
ATTAGGGC	-0.125
CAAATGCG	0.068
ATTGAACC	-0.0437
AGCCGCAC	-0.0107
AACGTCAG	-0.23
CATCGTTC	-0.0178
AACGCTGT	-0.0769
GGAGCGAC	0.182
CGTTGGGC	-0.0878
GAACTCTA	-0.0765
AGGCTGAT	-0.308

Sequence	PBM E-score
CCAAAAAA	0.0139
GCTCCCCC	-0.133
CATACGTA	-0.0591
GTGATCTA	-0.0775
ACCACATA	-0.169
ACGCATCG	0.0518
GAACGTAC	-0.143
ATAACTCA	-0.148
CTCTTTAA	-0.217
ACTCTTGA	-0.211
GGGCATAA	-0.101
TCAATTAA	-0.107
AGGGTAAG	0.0302
TAAACGCA	-0.0432
AGATGAAT	-0.194
TCCCACGA	-0.00907
CCGGACTA	0.458
GCTAGGTA	-0.213
AAAAACGT	-0.107
AGGCTTAC	-0.078
CGGCATAC	0.261
CACACGAC	-0.0745
AAGTTGTG	-0.0813
ATTACACG	0.00458
AACAAATA	0.0539

Sequence	PBM E-score
CACTACTG	-0.212
GAAGGCCA	-0.0521
AATAACAA	-0.0732
CCAAGCCA	-0.206
AAGAAAAG	-0.0374
TCGTACAA	-0.267
GGGGCGTA	0.0266
CACTACCG	0.00134
CCGGCTGA	0.283
ACTTTGTC	-0.0588
CCAGCTCA	-0.186
CCCAGATA	-0.14
ATTGACCG	0.212
ATCTTATA	-0.157
ACCATTCA	-0.181
CAACGCGG	0.246
ACAGCCGC	-0.0158
TCGACACA	-0.1
ATAGAGTA	-0.193
GGTGCGAA	0.0287
ACAAGCCG	0.0883
GAACACGA	-0.03
GGTTCAAC	-0.0464
AAGATAGT	0.0193
AAGGGCCA	-0.284

Sequence	PBM E-score
CGCGCAAA	0.195
TCCACTAA	-0.0203
ACTCCTAA	-0.0203
ACTGCGTA	-0.107
ATAACATA	0.032
CGCCCGAG	0.237
CTGGGTAA	-0.124
AGCTTTCA	-0.146
ACCCCGAT	0.426
AATGGCCA	0.0167
AGCGTCGA	-0.103
CAAACAGC	-0.0421
GGTTGGAC	0.00889
CGACGGTC	0.0469
AAGTGCTA	-0.258
TGGCTACA	-0.123
CAAACAAA	-0.172
AAGGGAGA	-0.178
CACCTTGC	-0.097
GCTGCATA	-0.13
GATCATGA	-0.00747
CTCATCAC	-0.19
AATGTGCT	-0.0471
TCCGGTCA	0.378
ACGCTTTC	-0.0857

Sequence	PBM E-score
CTGGCATC	-0.314
AGGGCCTA	-0.0551
AATCCGCA	0.316
AAGGTATC	-0.038
CTATGGTC	-0.186
CTGGCGTA	-0.244
CTGCCCCA	-0.101
ATCGGGTG	0.174
ATACACGC	0.0739
GAAACTAA	-0.124
GCTATGAA	-0.12
AACACAAT	-0.152
ATTGTACG	-0.242
GTCCAGTA	-0.16
ACTTCACC	0.144
AGCTTATA	-0.123
CCCTGAGC	0.1
CATTGGAA	-0.0814
ACCATCAG	-0.0879
CGGGGGAC	0.218
CAAAGTAG	-0.238
AATCTCCA	-0.0603
ACTATAGG	-0.264
GACTTCTA	-0.106
AGGCAGAC	-0.171

Sequence	PBM E-score
ACTCGACT	-0.298
CCTGAACA	-0.182
GAGCCCAC	0.0305
ACGGTGGA	-0.143
CCTAAGTC	-0.0846
AGTGAAAT	-0.095
CTGGCCTC	0.0338
CCTCTAAG	-0.263
GGGCGTAA	0.0712
AGGAGTTC	0.109
AACTTCAG	-0.108
AAGTGTAC	-0.275
GGTTGAAA	0.0153
GTGATTGA	0.0007
CGCAAACC	0.00999
AAGGAAGA	-0.137
ACCTGCTG	-0.00776
AAACCCGA	0.384
AGGCATGC	-0.0463
CGCGAGAC	-0.0996
CCCATGTA	-0.114
GAGATAGA	-0.0983
TCCATGGA	0.0366
GGCCTCTA	-0.294
TAGTGTAA	-0.0583

Sequence	PBM E-score
TATGCCCA	-0.277
AAATGCAC	0.145
ATCAAGTG	-0.0482
CCATATTA	-0.133
GTCGGGAA	0.201
CCCCCGTA	-0.173
CTACTGAA	-0.145
TACTTCAA	-0.0168
CGGGCAAG	0.205
CCTACCTC	-0.0324
CTATATTA	-0.00907
ATGACCCA	-0.23
CCCATAGC	-0.147
CCAAATTC	-0.148
ATTGTAGG	-0.0526
CCCTGGAG	-0.268
AGGGGACA	-0.182
ATACGTAC	-0.246
ATTACAGA	-0.0614
AAGAAGTG	-0.0791
CGTTCATC	0.02
CAAGGTAC	-0.202
CATGTCTC	-0.00706
CAACGTAA	-0.175
ATAATTGC	-0.0388

Sequence	PBM E-score
CGATAAGA	0.108
CGTCTGAG	-0.0235
GGTGGCAA	-0.156
AGAGTTGG	-0.115
CTAAACCA	-0.0227
ATATCATC	-0.0863
ACGGATTA	0.205
AATGTGAA	-0.116
ACTGCGCT	-0.183
TCGTACCA	-0.0827
CCAGTCTC	-0.18
CCACCACG	-0.0578
GCCAAGCC	0.0558
AACCTCAC	-0.238
CCTAGAAG	-0.246
CTGAATTC	-0.0397
ACTCTGGA	-0.117
AGGCTTCA	-0.0672
ATGTTCCA	-0.162
